According to PubChem BioAssay AID504333 (National Center for Advancing Translational Sciences (NCATS), 2011):
Among all 360,000 compounds or so, about 16,000 (4.4%) were called active. This list was built around the results that the source calls inconclusive (neither active nor inactive); the mix of calls is not that of the screen. Calls come from the whole dose curve; as a rule, active = well fitted inhibition curve with a large enough effect; inconclusive = small, poorly fitted or top-dose-only effect; inactive = no such curve, though single readings can be large or run the other way. Potencies beside an inconclusive call are fits to weak or partial responses and may not hold up.

Biological target: Bromodomain adjacent to zinc finger domain protein 2B (Homo sapiens) (UniProt Q9UIF8)
Sequence of UniProt Q9UIF8 (Q9UIF8 whole entry, looked up, the tested form may be a part): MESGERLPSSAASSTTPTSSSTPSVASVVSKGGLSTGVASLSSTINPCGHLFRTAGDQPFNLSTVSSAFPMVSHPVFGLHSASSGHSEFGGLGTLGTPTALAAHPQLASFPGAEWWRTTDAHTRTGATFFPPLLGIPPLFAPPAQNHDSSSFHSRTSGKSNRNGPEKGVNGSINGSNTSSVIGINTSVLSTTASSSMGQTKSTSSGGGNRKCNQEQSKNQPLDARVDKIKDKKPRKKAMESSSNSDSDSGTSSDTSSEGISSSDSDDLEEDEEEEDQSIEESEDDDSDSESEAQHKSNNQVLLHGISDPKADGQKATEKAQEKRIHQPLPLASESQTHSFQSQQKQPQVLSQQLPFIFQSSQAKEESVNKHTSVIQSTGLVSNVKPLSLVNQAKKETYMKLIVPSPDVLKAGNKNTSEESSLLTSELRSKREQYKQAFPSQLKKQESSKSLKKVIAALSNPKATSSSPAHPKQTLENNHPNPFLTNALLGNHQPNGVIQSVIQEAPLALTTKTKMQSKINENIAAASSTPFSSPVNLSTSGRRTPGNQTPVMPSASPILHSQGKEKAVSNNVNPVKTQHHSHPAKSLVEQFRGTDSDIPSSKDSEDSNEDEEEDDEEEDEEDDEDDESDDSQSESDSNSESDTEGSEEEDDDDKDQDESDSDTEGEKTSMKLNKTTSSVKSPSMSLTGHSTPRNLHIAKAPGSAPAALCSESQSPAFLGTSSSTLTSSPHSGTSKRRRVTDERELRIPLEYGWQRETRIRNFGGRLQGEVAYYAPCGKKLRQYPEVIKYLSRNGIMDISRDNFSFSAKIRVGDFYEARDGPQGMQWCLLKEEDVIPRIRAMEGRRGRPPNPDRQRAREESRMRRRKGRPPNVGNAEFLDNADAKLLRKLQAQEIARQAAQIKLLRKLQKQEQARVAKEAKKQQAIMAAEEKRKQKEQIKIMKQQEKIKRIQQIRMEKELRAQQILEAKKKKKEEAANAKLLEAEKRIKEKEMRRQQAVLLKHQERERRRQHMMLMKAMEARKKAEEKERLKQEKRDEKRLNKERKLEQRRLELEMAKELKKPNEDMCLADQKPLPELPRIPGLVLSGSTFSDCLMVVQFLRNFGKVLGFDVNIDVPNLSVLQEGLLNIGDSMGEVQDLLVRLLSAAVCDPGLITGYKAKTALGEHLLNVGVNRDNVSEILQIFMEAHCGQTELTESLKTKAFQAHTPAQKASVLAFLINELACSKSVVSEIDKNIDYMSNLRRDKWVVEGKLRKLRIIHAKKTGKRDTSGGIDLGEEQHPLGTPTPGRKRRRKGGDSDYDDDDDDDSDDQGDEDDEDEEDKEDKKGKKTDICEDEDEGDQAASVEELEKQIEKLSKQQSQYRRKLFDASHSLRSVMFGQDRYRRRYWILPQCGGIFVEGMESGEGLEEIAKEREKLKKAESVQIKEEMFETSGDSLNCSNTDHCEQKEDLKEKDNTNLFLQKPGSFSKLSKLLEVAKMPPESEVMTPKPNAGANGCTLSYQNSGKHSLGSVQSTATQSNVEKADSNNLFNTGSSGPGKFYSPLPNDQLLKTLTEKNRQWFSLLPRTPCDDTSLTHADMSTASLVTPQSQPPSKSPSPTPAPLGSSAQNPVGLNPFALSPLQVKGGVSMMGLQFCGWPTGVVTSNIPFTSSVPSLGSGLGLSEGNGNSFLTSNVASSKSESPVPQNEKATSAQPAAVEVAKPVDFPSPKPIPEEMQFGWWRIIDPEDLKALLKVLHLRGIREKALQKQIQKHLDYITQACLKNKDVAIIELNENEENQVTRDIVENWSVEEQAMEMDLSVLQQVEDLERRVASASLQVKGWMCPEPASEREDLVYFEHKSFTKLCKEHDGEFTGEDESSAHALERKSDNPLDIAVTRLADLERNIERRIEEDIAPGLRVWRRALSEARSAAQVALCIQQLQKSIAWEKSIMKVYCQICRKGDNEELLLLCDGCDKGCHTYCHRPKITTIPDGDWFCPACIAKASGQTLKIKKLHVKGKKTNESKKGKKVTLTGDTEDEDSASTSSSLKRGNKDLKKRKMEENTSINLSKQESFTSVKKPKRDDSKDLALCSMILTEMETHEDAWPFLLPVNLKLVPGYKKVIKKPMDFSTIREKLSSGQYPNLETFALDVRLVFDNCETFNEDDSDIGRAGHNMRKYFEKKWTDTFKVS
Assay: qHTS Assay for Inhibitors of BAZ2B; note: nearly all actives have a fitted effect of over 60% in size
Conditions: AlphaScreen BAZ2B-H3K14Ac peptide displacement; activity change, negative = inhibition: at 114 µM (top of the series) unless noted
How it was run: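 AlphaScreen luminescence quantifies BAZ2B engagement of H3K14Ac peptide; the protein and biotinylated peptide are both at 50 nM final, buffer PBS pH 7.4 with 0.01% Tween-20, all steps at room temperature.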
% is set by controls: 0 for no effect and ±100 for the full control effect; potency is the fitted concentration of half-maximal effect; tags give direction and shape of the fitted curve.

`COc1ccc(C(=O)Nc2ncc3c(n2)-c2ccccc2CC3)cc1` was tested. Which Potency did it give?
The Potency was inconclusive: 89.1 µM [inhibitor, single point].

With `C=CCOc1cccc(C(=O)Nc2ncn[nH]2)c1` as the molecule, how does the Potency read?
The Potency was active: 56.2 µM.

`Cc1cc(/C=C2\NC(=O)NC2=O)c(C)n1-c1cccnc1` was tested. Which Potency did it give?
Its Potency is inconclusive: 79.4 µM [inhibitor, single point].

With `CCn1c(C)c(C)c2cc(C(=O)N3CCc4ccccc4C3)ccc21` as the molecule, how does the Potency read?
The Potency was active: 22.4 µM.

For `COc1ccc(NC(=O)CSc2nc(-c3ccccc3)nc3c2Cc2c(CO)cnc(C)c2O3)cc1Cl`, which Potency is on record?
Its Potency is inconclusive: 79.4 µM [inhibitor, single point].

With `CCCCOc1ccccc1Cn1c(=O)oc2ccccc21` as the molecule, how does the “activity change, negative = inhibition” value read?
Its value is inactive: 176%.

How did the Potency turn out when `O=C(NC1CCCCC1)c1ccc(-c2ccc(Cl)cc2)o1` was run?
Its Potency is inconclusive: 11.2 µM [inhibitor, partial curve].

With `Cc1ccc2oc(=O)n(CCNC(=O)Nc3ccc(C)c(F)c3)c2c1` as the molecule, how does the “activity change, negative = inhibition” value read?
The value was inactive: -5.9%.

How did the Potency turn out when `COc1cc(CNCc2ccccn2)ccc1OCc1ccccc1Cl` was run?
The Potency was inconclusive: 50.1 µM [inhibitor, partial curve, poor fit].

`C=CCOc1ccc(C2C(C(=O)c3ccco3)=C(O)C(=O)N2c2nnc(C)s2)cc1` (centres undefined) was tested. Which Potency did it give?
Its Potency is active: 79.4 µM.

With `CCOc1ccc(-c2c(C(=O)N/N=C(\C)c3ccncc3)nnn2-c2nonc2N)cc1` as the molecule, how does the Potency read?
The Potency was inconclusive: 79.4 µM [inhibitor, single point].

With `COc1cc(C(=O)OCC(=O)c2cc(C)n(CC3CCCO3)c2C)cc(OC)c1C` (centres undefined) as the molecule, how does the Potency read?
Its Potency is active: 50.1 µM.

For `CCOC(=O)c1cc2occc2n1CCCN1C(=O)c2ccccc2C1=O`, which Potency is on record?
The Potency was active: 50.1 µM.

With `CC(=O)Nc1ccc(S(=O)(=O)N2CCN(C(=O)c3ncoc3-c3ccccc3C)CC2)cc1` as the molecule, how does the “activity change, negative = inhibition” value read?
The value was inactive: 1.26%.

With `CS(=O)(=O)Nc1ccc(C2=NN(C(=O)c3ccco3)C(c3ccco3)C2)cc1` (centres undefined) as the molecule, how does the Potency read?
Its Potency is inconclusive: 79.4 µM [inhibitor, single point].

For `Cn1c(=O)c2c(-c3ccccc3Br)n(CCc3ccccc3)cc2n(C)c1=O`, which Potency is on record?
The Potency was inconclusive: 79.4 µM [inhibitor, partial curve].

With `CCCCNC(=O)C(CC)(ONc1ccccc1C(F)(F)F)c1ccccc1OC` (centres undefined) as the molecule, how does the Potency read?
Its Potency is inconclusive: 39.8 µM [inhibitor, partial curve].

For `CC(=O)OCC(=O)N1N=C(c2ccc3ccccc3c2)CC1c1ccccc1` (centres undefined), which “activity change, negative = inhibition” value is on record?
The value was inactive: -18.9%.

How did the Potency turn out when `O=C(C1CCCCN1S(=O)(=O)c1ccccc1[N+](=O)[O-])N1CCCC1` (centres undefined) was run?
Its Potency is inconclusive: 89.1 µM [inhibitor, single point].

For `COc1ccc(Cl)cc1NC(=O)c1c(NCc2ccc(C)o2)sc2c1CCCC2`, which Potency is on record?
Its Potency is inconclusive: 79.4 µM [inhibitor, partial curve].

`Cc1ccc(C(=O)c2coc3c2C(=O)C(=O)c2ccccc2-3)cc1` was tested. Which Potency did it give?
The Potency was inconclusive: 70.8 µM [inhibitor, single point].

With `N#CC1=C(S)N(c2ccccc2)C2(CCCCC2)NC1=O` as the molecule, how does the Potency read?
Its Potency is inconclusive: 89.1 µM [inhibitor, single point].

Which “activity change, negative = inhibition” value does the source give for `CCC(C)NC(=O)CSc1nc2cc3c(cc2c(=O)n1CCCC(=O)NCc1ccc2c(c1)OCO2)OCO3` (centres undefined) here?
The value was inactive: -1.61%.

`COc1ccc(F)c(CN2CCCC(CNS(=O)(=O)c3cccc4cccnc34)C2)c1` (centres undefined) was tested. Which “activity change, negative = inhibition” value did it give?
The value was inactive: -20.2%.

How did the “activity change, negative = inhibition” value turn out when `COc1cc(/C=N/NC(=O)c2cc[n+]([O-])cc2)ccc1O` was run?
Its value is inactive: 3.95%.

For `O=[N+]([O-])c1ccc(Cl)c(/C=N/N2CCN(Cc3ccccc3)CC2)c1`, which Potency is on record?
Its Potency is active: 10 µM.

For `COc1ccc(OC)c(CCNC(=O)c2cccc(NC(=O)C3=C(C)OCCS3)c2)c1`, which Potency is on record?
Its Potency is inconclusive: 50.1 µM [inhibitor, partial curve].

`COc1cc(OC)cc(C(=O)NCc2ccc3[nH]c(C)cc3c2)c1` was tested. Which Potency did it give?
Its Potency is inconclusive: 70.8 µM [inhibitor, single point].

`COc1ccc(C(CCN2CCN(c3ccccc3)CC2)c2c(OC)cc(OC)c3c(-c4ccccc4)cc(=O)oc23)cc1` (centres undefined) was tested. Which Potency did it give?
Its Potency is inconclusive: 7.08 µM [inhibitor, full curve].

`CCc1nc(Nc2ccc3c(c2)OCO3)c2oc3ccccc3c2n1` was tested. Which Potency did it give?
The Potency was inconclusive: 50.1 µM [inhibitor, partial curve].

`COc1ccc(CN2C(=O)C(NC(=O)c3ccccc3OC)(C(F)(F)F)N=C2c2ccccc2)cc1` (centres undefined) was tested. Which “activity change, negative = inhibition” value did it give?
The value was inactive: -19.5%.

For `COc1ccc(NS(=O)(=O)c2ccc(NC(=S)NC(=O)c3cccc(F)c3)cc2)nn1`, which Potency is on record?
Its Potency is inconclusive: 70.8 µM [inhibitor, single point].

For `Cc1cc(C)n(CCOc2nonc2N)n1`, which Potency is on record?
Its Potency is inconclusive: 89.1 µM [inhibitor, single point].

With `CC(C)(C)N(CC#CCC(O)(c1ccccc1)C1CCCC1)CCO` (centres undefined) as the molecule, how does the Potency read?
The Potency was active: 79.4 µM.

How did the “activity change, negative = inhibition” value turn out when `O=C(NCCc1ccccc1)C1COc2ccccc2O1` (centres undefined) was run?
The value was inactive: -9.33%.

`COC(=O)C1=C(N)Oc2cc(C)n(CCCn3ccnc3)c(=O)c2C1c1ccc(Cl)cc1` (centres undefined) was tested. Which activity change, negative = inhibition did it give?
Its activity change, negative = inhibition is inconclusive: -42.7% [inhibitor].

Which Potency does the source give for `CC(C)(C)c1ccc(C(=O)Nc2ncn[nH]2)cc1` here?
The Potency was inconclusive: 63.1 µM [inhibitor, partial curve, poor fit].

How did the Potency turn out when `COc1ccc(N2Cc3cccc(C(=O)NC(C)CCc4ccco4)c3C2=O)cc1` (centres undefined) was run?
The Potency was active: 35.5 µM.

Which “activity change, negative = inhibition” value does the source give for `O=C(c1ccc(Cl)c(S(=O)(=O)NCc2cccnc2)c1)N1CCCC1` here?
Its value is inactive: 3.72%.

With `CC(C)CN1CCNC(=O)C1CC(=O)NCCCN1CCCc2ccccc21` (centres undefined) as the molecule, how does the Potency read?
Its Potency is active: 79.4 µM.

With `COc1ccc(OC)c(NC(=S)N2CCN(C/C=C/c3ccccc3)CC2)c1` as the molecule, how does the Potency read?
The Potency was inconclusive: 89.1 µM [inhibitor, single point].

Which Potency does the source give for `COc1ccc(CCNC(=O)Nc2cccc([N+](=O)[O-])c2)cc1OC` here?
The Potency was inconclusive: 35.5 µM [inhibitor, partial curve, poor fit].

With `CCCCCn1c(=N)n(CC(O)COc2ccccc2OC)c2ccccc21` (centres undefined) as the molecule, how does the Potency read?
Its Potency is “inactive”.

With `O=C1/C(=C/c2cccs2)SC(=S)N1CC(=O)N1CCCCC1CCO` (centres undefined) as the molecule, how does the Potency read?
Its Potency is inconclusive: 44.7 µM [inhibitor, partial curve].

Which Potency does the source give for `CCn1nnc(NC(=O)c2ccc([N+](=O)[O-])o2)n1` here?
Its Potency is inconclusive: 79.4 µM [inhibitor, partial curve].

How did the Potency turn out when `COc1cc(C(C)=O)ccc1OCC(O)CNCC(O)c1ccccc1` (centres undefined) was run?
Its Potency is active: 56.2 µM.

Which “activity change, negative = inhibition” value does the source give for `CC(=O)c1cccc(NC(=S)N2CCN(S(=O)(=O)c3ccc(F)cc3)CC2)c1` here?
The value was inactive: -13.5%.

How did the Potency turn out when `COc1ccc(/C=N/NC(=O)C(N)=O)c(OC)c1OC` was run?
The Potency was inconclusive: 79.4 µM [inhibitor, single point].

With `COC(=O)C1=C(C)NC(=O)C1(NC(=O)c1ccccc1C)C(F)(F)F` (centres undefined) as the molecule, how does the “activity change, negative = inhibition” value read?
The value was inactive: 1.04%.

`CC(C)CN(CC(C)C)S(=O)(=O)N1CCC(C(=O)NCc2ccco2)CC1` was tested. Which Potency did it give?
Its Potency is inconclusive: 89.1 µM [inhibitor, single point].

How did the Potency turn out when `N#Cc1c2c(c(=S)n(-c3ccccc3)c1N)CCCC2` was run?
The Potency was inconclusive: 79.4 µM [inhibitor, single point].

How did the “activity change, negative = inhibition” value turn out when `O=C(CN1C(=O)COc2ccc(S(=O)(=O)N3CCOCC3)cc21)NCc1ccco1` was run?
The value was inactive: 4.13%.

With `Cc1nccn1CCOc1ccc(Cl)cc1` as the molecule, how does the Potency read?
Its Potency is active: 44.7 µM.

For `COCCN(CCOC)c1ncnc2c1c(-c1ccccc1)cn2-c1ccc(C)c(Cl)c1`, which Potency is on record?
The Potency was inconclusive: 20 µM [inhibitor, full curve].

`C/C(=N\Nc1ccc(Cl)c(Cl)c1)c1ccc(-n2ccnc2)cc1` was tested. Which Potency did it give?
The Potency was inconclusive: 50.1 µM [inhibitor, partial curve].

Which Potency does the source give for `CN(C)CCCNc1ncnc2sc(-c3ccccc3)cc12` here?
The Potency was active: 56.2 µM.

`COc1cccc(S(=O)(=O)NCc2ccc(C(=O)N3CCN(c4ccccc4OC)CC3)cc2)c1` was tested. Which Potency did it give?
The Potency was inconclusive: 79.4 µM [inhibitor, partial curve].

How did the “activity change, negative = inhibition” value turn out when `O=C(CNc1ccc(Br)cc1)NC(=O)NC1CCCCC1` was run?
Its value is inactive: -4.38%.

With `COc1ccccc1/C=C/C=N/n1c(-c2ccc(Cl)cc2Cl)n[nH]c1=S` as the molecule, how does the Potency read?
Its Potency is inconclusive: 50.1 µM [inhibitor, partial curve].

`COC(=O)c1ccc(CN2CCc3ccccc32)cc1` was tested. Which Potency did it give?
Its Potency is inconclusive: 89.1 µM [inhibitor, single point].

`O=C(NCc1ccco1)c1cc2c(s1)CSC2` was tested. Which Potency did it give?
Its Potency is active: 50.1 µM.

For `CCC(=O)Nc1ccc(NC(=O)Cc2ccccc2)cn1`, which Potency is on record?
Its Potency is inconclusive: 89.1 µM [inhibitor, single point].

Which “activity change, negative = inhibition” value does the source give for `CCC(=O)c1ccc(N2CCC(C)CC2)c(F)c1` here?
The value was inactive: 28.8%.

For `COc1cc(-c2cc(OC)c3c(C)oc(C)c3c(=O)c2)ccc1OC(=O)c1cccc(Cl)c1`, which Potency is on record?
Its Potency is active: 79.4 µM.

For `O=C(NC1CCCC1)c1ccc([N+](=O)[O-])s1`, which “activity change, negative = inhibition” value is on record?
Its value is inactive: -26.2%.

For `CC(C)CN1C(=O)c2ccc(C(=O)Nc3ccc(O)cc3C(=O)O)cc2C1=O`, which Potency is on record?
The Potency was inconclusive: 56.2 µM [inhibitor, single point].

`CCN(CC)C(=O)C1CCCN(Cc2ccc3ccccc3c2)C1` (centres undefined) was tested. Which Potency did it give?
Its Potency is inconclusive: 100 µM [inhibitor, single point].

Which Potency does the source give for `CC(C)c1ccc(S(=O)(=O)N2CCN(CC(=O)c3ccc(O)c(O)c3)CC2)cc1` here?
Its Potency is active: 39.8 µM.

Which Potency does the source give for `CCCOC(=S)Nc1ccccc1` here?
The Potency was inconclusive: 7.08 µM [inhibitor, full curve].

For `CCOC(=O)c1ccc(NC(=O)c2nn(C)c3c2COc2ccccc2-3)cc1`, which Potency is on record?
Its Potency is inconclusive: 7.94 µM [inhibitor, full curve, poor fit].

With `COc1cc(NS(=O)(=O)c2ccc3ccccc3c2)c2ncccc2c1` as the molecule, how does the “activity change, negative = inhibition” value read?
The value was inactive: 19.5%.

With `CC(C)(C)c1cc(CCC(=O)NNC(=S)NC(=O)c2ccccc2)cc(C(C)(C)C)c1O` as the molecule, how does the “activity change, negative = inhibition” value read?
The value was inactive: -34.2%.

`CC1CCCN(Cc2c(O)ccc3c2O/C(=C\c2ccco2)C3=O)C1` (centres undefined) was tested. Which Potency did it give?
The Potency was inconclusive: 79.4 µM [inhibitor, single point].

`CCN(CC)CCNCc1cc(Cl)ccc1OCc1ccccc1F` was tested. Which Potency did it give?
The Potency was inconclusive: 89.1 µM [inhibitor, single point].
